{"source": "paper PMC12040169", "about": "(PLOS Biology, 2025)", "note": "The list shows a part of the results.", "data": [{"system": "T1, C. trachomatis L2/434/Bu expressing GFP (CTL2-GFP)", "T1 construct": "L2/434/Bu GFP intracellular growth in HeLa cells", "set-up": "species or system HeLa; C. trachomatis total inclusion area by high-content imaging, normalised to DMSO", "settings": "total inclusion area; 28.5 h, 10 µM; inhibitor", "from_the_text": "In this process, we also complemented the assay described above with an imaging-based readout (Fig 1B). After measurements of bulk GFP and resorufin fluorescence, cells were fixed, stained with the DNA dye Hoechst, and imaged at a high-content imaging platform to detect chlamydial inclusions (GFP) and host cell nuclei (Hoechst). The total area and number of inclusions in individual wells and the number of nuclei then served as additional proxies for chlamydial growth and host cell viability. […] MICs were calculated as described above.", "values": [{"smiles": "CS(=O)(=O)CCC(C(=O)O)N1C(=O)c2ccc(Oc3ccc(Cl)cc3)cc2C1=O", "note": "(stereo not shown) [CBK266377]", "% of control remaining": 125.483}, {"smiles": "CCCc1n[nH]c(-c2cc(C(F)(F)F)ccc2F)c1C(=O)OCC", "note": "[CBK107231]", "% of control remaining": 78.2627}, {"smiles": "COc1ccc(-n2cc(-c3ccccn3)nn2)cc1OC", "note": "[CBK113133]", "% of control remaining": 113.42}, {"smiles": "CCn1c(SCC(=O)Nc2ccc([N+](=O)[O-])cc2O)nnc1-c1ccccc1", "note": "[CBK268730]", "% of control remaining": 94.8997}, {"smiles": "Cc1ccccc1NC(=O)/C(=C\\c1cccnc1)NC(=O)c1ccccc1", "note": "[CBK261632]", "% of control remaining": 98.9872}, {"smiles": "Cc1cc(N2CCC(O)CC2)nc(N)n1", "note": "[CBK167265]", "% of control remaining": 98.6501}, {"smiles": "CCN(Cc1ccccc1)C1CCN(Cc2cccc(OC)c2)CC1", "note": "[CBK264654G]", "% of control remaining": 77.3498}, {"smiles": "COc1ccc(/C=C/C(=O)NCc2ccc(S(N)(=O)=O)cc2)cc1OC", "note": "[CBK265483]", "% of control remaining": 105.286}, {"smiles": "COc1ccc(-c2nn(-c3ccccc3)cc2C(=O)Nc2ccc(C(=O)O)cc2)cc1", "note": "[CBK296121]", "% of control remaining": 82.1797}, {"smiles": "CC(=O)Nc1ccc2nc(NC(=O)c3ccc(C#N)cc3)sc2c1", "note": "[CBK287309]", "% of control remaining": 105.822}, {"smiles": "Cc1ccc(Cc2cnc(NC(=O)NC3CCOCC3)s2)cc1Cl", "note": "[CBK304440]", "% of control remaining": 32.2057}, {"smiles": "COc1ccc(C(=O)N[C@H]2C[C@H]3C(=O)Nc4ccc(-c5ccsc5)cc4C(=O)N3C2)cc1", "note": "[CBK289362]", "% of control remaining": 95.7469}, {"smiles": "CC1(C)CC(=O)c2sc(NC(=O)C3COc4ccccc4O3)nc2C1", "note": "(stereo not shown) [CBK144104]", "% of control remaining": 90.5313}, {"smiles": "O=C(CCn1c(C(F)(F)F)cc2cccnc21)NC1CCCC1", "note": "[CBK284864]", "% of control remaining": 81.7033}, {"smiles": "CS(=O)(=O)c1ccc(CN2CCOC[C@H]2c2nc(-c3ccc(F)cc3)c[nH]2)cc1", "note": "[CBK289295]", "% of control remaining": 97.9681}, {"smiles": "CC1(C)C[C@H](NC(=O)c2ccccc2)[C@@]2(CCC(=O)NC3CC3)CC[C@](C)(O)C[C@@H]12", "note": "[CBK289045]", "% of control remaining": 116.794}, {"smiles": "CCOC(=O)C(NC(=O)c1cn[nH]c1)c1cccc(C)c1C", "note": "(stereo not shown) [CBK304175]", "% of control remaining": 22.1591}, {"smiles": "N#CCCCN1CCCC2(C1)NCCc1c2[nH]c2cc(F)ccc12", "note": "(stereo not shown) [CBK039826]", "% of control remaining": 94.1349}, {"smiles": "CN(C)CCCC(=O)N1CCN(C(=O)c2ccco2)CC1", "note": "[CBK144445]", "% of control remaining": 97.1897}, {"smiles": "C[C@H](Nc1nc(-c2ccoc2)cnc1N)c1ccccc1", "note": "[CBK063707]", "% of control remaining": 135.532}, {"smiles": "COCCNC(=O)c1nnn(-c2ccc(Br)cc2)c1C", "note": "[CBK300524]", "% of control remaining": 100.303}, {"smiles": "Cc1cc(O)nc2sc(C(=O)c3ccccc3)c(N)c12", "note": "[CBK115334]", "% of control remaining": 96.9645}]}]}
